{"source": "PubChem BioAssay AID485294", "about": "(National Center for Advancing Translational Sciences (NCATS), 2010)", "note": "Out of some 370,000 compounds screened, about 150 (0.041%) were called active. Inconclusive means that the source gave no clear call. Such entries were picked first, then a sample of the others. The call rests on the fitted dose curve; in most records, active means well fitted inhibition curve with a large enough effect; inconclusive means small, poorly fitted or top-dose-only effect; inactive means flat fitted curve, though single readings scatter. No potency is given beside an inconclusive call; the fits are too rough."}
{"target": "Beta-lactamase (Escherichia coli (strain K12)) (UniProt P00811)", "sequence (P00811 whole entry, looked up)": "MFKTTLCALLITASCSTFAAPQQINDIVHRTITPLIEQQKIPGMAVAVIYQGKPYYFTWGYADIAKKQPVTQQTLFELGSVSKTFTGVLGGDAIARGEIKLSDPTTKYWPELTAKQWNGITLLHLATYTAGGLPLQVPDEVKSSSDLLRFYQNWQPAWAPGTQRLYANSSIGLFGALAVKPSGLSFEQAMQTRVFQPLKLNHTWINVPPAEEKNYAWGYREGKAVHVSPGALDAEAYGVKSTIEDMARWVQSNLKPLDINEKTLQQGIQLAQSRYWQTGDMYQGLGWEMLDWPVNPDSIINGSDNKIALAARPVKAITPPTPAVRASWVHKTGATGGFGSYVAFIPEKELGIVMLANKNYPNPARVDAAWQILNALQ", "assay": "qHTS Inhibitors of AmpC Beta-Lactamase (assay with detergent); further: nearly all actives have a fitted effect of over 25% in size; further: potency means the concentration at half of the fitted maximal effect; tags describe the fitted curve by direction and shape;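 on activity change, negative = inhibition: 0% = no-compound wells and -100% = no-enzyme wells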", "settings": "AmpC hydrolysis of nitrocefin, absorbance 480 nm, 0.01% Triton; activity change, negative = inhibition: at 114 µM (top of the series)", "in_short": "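20 mM phosphate pH 7.0 + 0.01% (detergent screen) or 0.0001% Triton X-100; 5.3 nM AmpC reagent; cpd preinc 15 min RT; nitrocefin (800 uM stock) to start; A480 q20 s × 4 min; Activity was normalised to no-enzyme and no-compound control wells.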"}
{"compound": "COc1ccccc1Nc1nnc(SC(C)C(=O)NC2CC2)s1", "note": "(stereo unspecified)", "Potency": "inconclusive [inhibitor, full curve, poor fit]"}
{"compound": "CC(=O)OCCNc1cc(N2CCN(C)CC2)c2noc3c2c1C(=O)c1ccccc1-3", "Potency": "inconclusive [inhibitor, full curve, poor fit]"}
{"compound": "CCOc1ccc(-n2ccnc2SCC(=O)Nc2cc(C)on2)cc1", "activity change, negative = inhibition": "inactive: 0.635%"}
{"compound": "COc1ccc(/C=C2\\SC(=O)N(CCNC(=O)Cc3coc4cc(C)ccc34)C2=O)cc1OC", "activity change, negative = inhibition": "inactive: -1.45%"}
{"compound": "CN1CCc2c(C#N)c(N3CCCCC3)nc(NCc3ccccc3)c2C1", "activity change, negative = inhibition": "inactive: 3.23%"}
{"compound": "COc1cnc(-c2ccccn2)nc1Oc1ccc(Cl)c2ccccc12", "activity change, negative = inhibition": "inactive: -5.76%"}
{"compound": "Cc1c(-c2c(C#N)c(N)nc3c2CCCCCC3)cnn1C", "activity change, negative = inhibition": "inactive: -0.801%"}
{"compound": "CCOc1cccc(C2c3c(oc4cc(C)c(C)cc4c3=O)C(=O)N2CCCN(C)C)c1", "note": "(stereo unspecified)", "Potency": "inconclusive [inhibitor, partial curve, poor fit]"}
{"compound": "COc1ccccc1N1CCN(C(CNS(=O)(=O)c2ccccc2)c2cccnc2)CC1", "note": "(stereo unspecified)", "Potency": "inconclusive [inhibitor, full curve, poor fit]"}
{"compound": "Cc1ccc(NC(=O)C2CCN(C(=O)NC3CCCCC3)CC2)c(C)c1", "activity change, negative = inhibition": "inactive: -3.4%"}
{"compound": "N#Cc1ccc(Oc2c(Cl)cncc2Cl)cc1", "activity change, negative = inhibition": "inactive: -0.118%"}
{"compound": "COC(=O)N/N=C/c1cc(C)n(-c2ccccc2)c1C", "activity change, negative = inhibition": "inactive: -11.5%"}
{"compound": "Nc1ccccc1C#CCCCCO", "Potency": "inconclusive [inhibitor, full curve, poor fit]"}
{"compound": "CN(CCc1ccccc1)C(=O)c1cc(COc2cccc(C(F)(F)F)c2)on1", "Potency": "inconclusive [inhibitor, full curve]"}
{"compound": "Cc1oc(-c2ccccc2)cc1C(=O)Nc1cccc(/C=C\\C(=O)O)c1", "Potency": "inconclusive [inhibitor, full curve, poor fit]"}
{"compound": "O=S(=O)(Nc1ccc(N2CCOCC2)nn1)c1ccccc1", "Potency": "inconclusive [inhibitor, full curve, poor fit]"}
{"compound": "CCCNC(=O)N1CCC2(CC1)OCCO2", "Potency": "inconclusive [inhibitor, full curve, poor fit]"}
{"compound": "CCCN(CCC)C(=O)Cn1c(=O)n(CCCCCC(=O)NCc2ccccc2Cl)c(=O)c2sccc21", "activity change, negative = inhibition": "inactive: -4.67%"}
{"compound": "Cc1ccccc1-c1ccc(C(=O)Nc2cccc(F)c2)o1", "Potency": "inconclusive [inhibitor, full curve, poor fit]"}
{"compound": "COc1ccc(/C=C/C(=O)NCC(=O)N/N=C/c2cc(Br)ccc2OC)cc1", "Potency": "inconclusive [inhibitor, full curve]"}
{"compound": "Cc1c(C(=O)NC2CCCc3ccccc32)oc2ccc(S(=O)(=O)N3CCCCC3)cc12", "note": "(stereo unspecified)", "Potency": "inconclusive [inhibitor, full curve]"}
{"compound": "CCOc1cc(N2CCOCC2)c(OCC)cc1NC(=O)CN1C(=O)NC(CC(C)C)C1=O", "note": "(stereo unspecified)", "Potency": "inconclusive [inhibitor, full curve, poor fit]"}
{"compound": "NCCCn1cnc2ccccc21", "Potency": "inconclusive [inhibitor, single point]"}
{"compound": "O=C(NCc1ccccc1)C(c1ccccn1)N(C(=O)c1csnn1)c1ccccc1F", "note": "(stereo unspecified)", "activity change, negative = inhibition": "inactive: -7.93%"}
{"compound": "Cc1cc(SCC(=O)NC2(C#N)CCCCC2)nc2c(C)cccc12", "activity change, negative = inhibition": "inactive: -14.6%"}
{"compound": "O=C(O)CNc1ncccc1[N+](=O)[O-]", "Potency": "inconclusive [inhibitor, full curve, poor fit]"}
{"compound": "CCCOc1ccccc1/C=C1\\SC(N2CCCCC2)=NC1=O", "Potency": "inconclusive [inhibitor, full curve, poor fit]"}
{"compound": "Cc1ccc(N2C(=O)NC(=O)/C(=C\\c3cnc(-c4ccccc4)nc3)C2=O)cc1", "activity change, negative = inhibition": "inactive: -10.3%"}
{"compound": "CCOc1cc(-c2ccc(OC(=O)c3ccccc3)c(OC)c2)cc(=O)c2c(C)oc(C)c12", "activity change, negative = inhibition": "inactive: 20.2%"}
{"compound": "COc1ccc(CN(C2CCCC2)S(=O)(=O)c2ccc(-n3cnnn3)c(OC)c2)cc1OC", "activity change, negative = inhibition": "inactive: 4.23%"}
{"compound": "COc1ccc2c(Cl)c(C(=O)NCCc3ccc(S(N)(=O)=O)cc3)sc2c1", "activity change, negative = inhibition": "inactive: -11.5%"}
{"compound": "Cc1ccc(S(=O)(=O)N(Cc2ccccc2)c2ccccc2C(=O)NCc2cccnc2)cc1", "activity change, negative = inhibition": "inactive: -12.5%"}
{"compound": "COc1cccc(Cc2nc3ccccc3nc2SCC(=O)Nc2cc(OC)ccc2OC)c1", "activity change, negative = inhibition": "inactive: 14.4%"}
{"compound": "Cc1nc2nc(C)c(CCC(=O)NCc3ccccc3)c(C)n2n1", "activity change, negative = inhibition": "inactive: 2.45%"}
{"compound": "CCOC(=O)C1CCN(S(=O)(=O)c2ccc(OCC(=O)OC)cc2)CC1", "Potency": "inconclusive [inhibitor, full curve]"}
{"compound": "Cc1ccc(N(Cc2ccccc2)C(=O)Cc2ccc(S(=O)(=O)N3CCOCC3)s2)cc1", "Potency": "inconclusive [inhibitor, partial curve, poor fit]"}
